Measured values as given in the BET-seq Pho4 binding data (Le et al. 2018).
Some of the results follow. These are noisy estimates, calculated here from bound and input reads.

target: T1, Pho4 (S. cerevisiae) (UniProt P07270); test: relative binding free energy (BET-seq); higher = weaker binding; details: reference: library average
T1 sequence: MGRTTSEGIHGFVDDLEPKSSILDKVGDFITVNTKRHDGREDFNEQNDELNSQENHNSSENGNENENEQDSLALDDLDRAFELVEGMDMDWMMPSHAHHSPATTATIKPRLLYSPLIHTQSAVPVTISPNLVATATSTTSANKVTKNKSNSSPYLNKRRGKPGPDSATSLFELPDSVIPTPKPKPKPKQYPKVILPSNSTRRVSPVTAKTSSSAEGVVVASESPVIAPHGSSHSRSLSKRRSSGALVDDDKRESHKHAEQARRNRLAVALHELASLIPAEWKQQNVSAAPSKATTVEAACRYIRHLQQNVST

Sequence | relative binding free energy [kcal/mol]
TGTAACACGTGGGAAG | -0.04
ATAGGCACGTGTTGGC | -0.06
TAATGCACGTGAGTGT | 0.08
ACTGGCACGTGATGGT | -0.03
ATCGTCACGTGGGGGC | -0.15
GTGCACACGTGGGAGT | 0.01
GTTTTCACGTGATGTT | 0.38
AGTGTCACGTGAGTCA | 0.37
GACTTCACGTGGGTGT | 0.29
CAATGCACGTGGTTGG | -0.04
GCTATCACGTGGAGTG | 0.24
CTTGGCACGTGTCGAG | 0.13
TTGGACACGTGAATAG | 0.29
AGGTACACGTGTGTAT | 0.05
GTTTTCACGTGGGGCG | 0.32
TAAGACACGTGTTGTT | 0.01
GTGGGCACGTGGTGAC | -0.18
TGCTTCACGTGCTGTT | 0.22
TGTTACACGTGTCGAT | 0.01
TGGTCCACGTGGTGGG | -0.02
CGGCACACGTGTGGGT | 0.06
ATTGTCACGTGGCGTT | 0.15
GGTACCACGTGTGCGG | -0.05
GTGTTCACGTGAGAGG | 0.49
TGTACCACGTGTGGAG | -0.08

Sequence | relative binding free energy [kcal/mol]
GGACGCACGTGCGTGG | -0.12
AATGGCACGTGGGTAA | -0.23
AGGTGCACGTGTCTAG | -0.1
AGTAGCACGTGTTTTG | -0.2
TATATCACGTGATTAA | 0.22
TATGTCACGTGGTAAT | 0.02
TAGATCACGTGAGGCT | 0.25
TGCATCACGTGGTAGT | 0.04
ATATTCACGTGATTAT | 0.36
GTGGTCACGTGTATTC | 0.17
ACTGTCACGTGTGTTA | -0.04
CTTGTCACGTGCTAGG | 0.15
TGGAACACGTGTTTTG | -0.03
GGGAGCACGTGTGGGG | -0.03
GGTAGCACGTGGAAGA | -0.08
AGTTTCACGTGCCGGG | 0.36
GGTCTCACGTGTGAGT | 0.35
GCGTTCACGTGATTAT | 0.24
AGGCACACGTGTGGTG | 0.12
TATTTCACGTGAAGCT | 0.38
GGATTCACGTGGCATA | 0.42
AGGTGCACGTGATGCG | 0.04
TTTATCACGTGAAGGA | 0.41
TTAAGCACGTGAGTGG | -0.01
TGATTCACGTGTTAAG | 0.35

Sequence | relative binding free energy [kcal/mol]
GGTGTCACGTGCGTCT | -0.07
TAGGCCACGTGTAGGG | -0.21
AGAGTCACGTGCATGT | 0.01
TATGACACGTGGAGCG | 0.08
ATGTGCACGTGGTATT | -0.12
AGTGCCACGTGCTGGT | -0.15
TGTCGCACGTGGAGTG | -0.07
TTTGGCACGTGCGGTA | -0.17
GTGAGCACGTGGACAT | 0.05
TTTAGCACGTGGATGG | 0.09
TAGTGCACGTGCGTTA | -0.06
AATTTCACGTGCGCGG | 0.14
GGCATCACGTGTGTAT | 0.17
GGGAACACGTGTGGTA | 0.11
TGATGCACGTGATTGT | 0.1
AGGTGCACGTGGGACA | -0.18
GTAGACACGTGAATGG | 0.33
TGCGGCACGTGATGAT | -0.12
TCGTTCACGTGGCTTA | 0.2
TGCGTCACGTGCGGCG | -0.09
TGCGTCACGTGAAGTT | 0.24
ACAGTCACGTGGGGAA | 0.05
GTGGGCACGTGATAAT | 0
TTTATCACGTGAGACG | 0.31
TTTGTCACGTGAAATC | 0.38

Sequence | relative binding free energy [kcal/mol]
GTTGTCACGTGTTAGG | 0.19
GTCTGCACGTGGAGTG | -0.04
TGATACACGTGGTTGT | 0.06
TAATTCACGTGCAGTA | 0.39
TTGTACACGTGTTTCA | 0.01
GGAGTCACGTGAGGAT | 0.33
ATCGTCACGTGGTGCG | -0.08
ATTTTCACGTGAGTAT | 0.38
AACGTCACGTGGGGGA | -0.03
TCTTGCACGTGTTTCG | -0.06
GAGATCACGTGGGGGC | 0.18
GAATTCACGTGAGCGG | 0.34
TTGTACACGTGATCTA | 0.15
CGGGGCACGTGGAGGC | -0.11
TGGTGCACGTGTAAAA | 0.11
TTGGGCACGTGATATG | 0.02
ATGGACACGTGAATTG | 0.28
CGAAACACGTGGGGGC | -0.06
AAGGTCACGTGGCTTG | 0.1
GGTTCCACGTGGGATA | 0.09
TGCGACACGTGGTCGG | -0.11
TGTTACACGTGTATAG | 0.14
TTAGACACGTGATATG | 0.07
GTGTGCACGTGTCTTT | 0.08
GTGCGCACGTGAGGAT | 0.21

Sequence | relative binding free energy [kcal/mol]
GGGTCCACGTGATTAG | 0.19
GGTTCCACGTGGAATG | 0.24
TGTATCACGTGCAGCT | 0.14
GATGGCACGTGGCGGA | -0.19
TTGATCACGTGATTTT | 0.33
AAACTCACGTGGTGTT | 0.13
TTAGTCACGTGATAGC | 0.18
TTGGACACGTGGTAAA | -0.03
TAGCGCACGTGCGGGG | -0.12
TTTTCCACGTGGAATG | 0.08
CTGTTCACGTGCAGGG | 0.21
GTGTTCACGTGAGGGA | 0.39
GAGTACACGTGTGGCT | 0.09
AAAGTCACGTGGAGTT | 0.26
GATGACACGTGCTGTT | 0.01
TATGGCACGTGGATAA | 0.02
AAAGACACGTGTGTAG | 0.17
ATATACACGTGGATGT | -0.02
TTAAGCACGTGGGTCT | -0.17
TTTGACACGTGGGGCA | -0.17
TCGTTCACGTGTTCAT | 0.29
TGTCACACGTGGAAGG | 0
TAATGCACGTGTACGT | -0.07
CAAATCACGTGGGGGT | -0.04
GGGATCACGTGGGCGC | 0.22

Sequence | relative binding free energy [kcal/mol]
TCATTCACGTGATTAT | 0.26
TTGTGCACGTGGTTTG | -0.01
GCTATCACGTGGGGAG | -0.09
CTTTGCACGTGGGAGA | 0.03
TATTTCACGTGAGAGG | 0.41
AGTGGCACGTGGGGCG | -0.22
TAGGGCACGTGAGTTA | 0.13
CGTATCACGTGGAATT | 0.25
AGGGACACGTGTGTTT | 0.18
GGATTCACGTGGGTAC | 0.22
CTTAACACGTGTATGT | 0
AGGAACACGTGCTGTG | 0.06
GCATTCACGTGGTTGA | 0.29
TAACTCACGTGTATGG | 0.16
AAGTGCACGTGATGTT | 0.04
CTCTGCACGTGTTGGT | -0.09
GTATACACGTGTGGGA | 0.02
TTGTTCACGTGTGAAG | 0.27
TGGGCCACGTGGGAAA | -0.12
CGGGTCACGTGTGGAT | 0.27
GTACCCACGTGGGTGT | -0.09
